Reference: the BET-seq Pho4 binding data (Le et al. 2018)
Some of the results follow. These are noisy estimates, calculated here from bound and input reads.

What follows are sequences tested against T1, Pho4 (S. cerevisiae) (UniProt P07270) (assay: relative binding free energy (BET-seq); higher = weaker binding). Conditions: reference: library average.
T1 sequence: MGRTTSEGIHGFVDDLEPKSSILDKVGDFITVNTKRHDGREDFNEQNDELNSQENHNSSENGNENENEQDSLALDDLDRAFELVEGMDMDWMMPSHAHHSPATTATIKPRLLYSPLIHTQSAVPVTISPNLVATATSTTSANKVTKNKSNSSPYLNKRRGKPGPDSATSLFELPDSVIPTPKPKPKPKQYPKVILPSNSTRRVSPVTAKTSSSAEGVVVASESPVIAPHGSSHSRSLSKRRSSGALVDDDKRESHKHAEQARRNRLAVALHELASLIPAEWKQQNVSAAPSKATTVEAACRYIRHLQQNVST
For ACGTGCACGTGGGTCG, the “relative binding free energy” value was -0.29 kcal/mol.
TGACACACGTGGCGGG was tested, and the “relative binding free energy” value was 0.09 kcal/mol.
For TTAAGCACGTGGTGTA, the “relative binding free energy” value was -0.18 kcal/mol.
For GTATGCACGTGTATTG, the “relative binding free energy” value was -0.09 kcal/mol.
For TTAGACACGTGCATGG, the “relative binding free energy” value was 0.07 kcal/mol.
With GACTGCACGTGGGTGG the “relative binding free energy” value was -0.12 kcal/mol.
For GGGTGCACGTGGGATA, the “relative binding free energy” value was 0.05 kcal/mol.
AGAGACACGTGGGTTT was tested, and the “relative binding free energy” value was -0.01 kcal/mol.
With TGTTACACGTGCTTTA the “relative binding free energy” value was -0.08 kcal/mol.
With TTGTGCACGTGTGGCC the “relative binding free energy” value was 0.07 kcal/mol.
ATCTGCACGTGGTGTT was tested, and the “relative binding free energy” value was -0.2 kcal/mol.
With TGGGGCACGTGCCGTA the “relative binding free energy” value was -0.14 kcal/mol.
With GGGGTCACGTGATGGG the “relative binding free energy” value was 0.34 kcal/mol.
For AAGGGCACGTGCTGGG, the “relative binding free energy” value was -0.25 kcal/mol.
ATGGTCACGTGATGCC was tested, and the “relative binding free energy” value was 0.33 kcal/mol.
For GGTAACACGTGGGTCT, the “relative binding free energy” value was -0.16 kcal/mol.
In the case of ATCGGCACGTGGTGAG, the “relative binding free energy” value is reported as -0.15 kcal/mol.
In the case of GCGAACACGTGGTATG, the “relative binding free energy” value is reported as 0.1 kcal/mol.
In the case of TTGCTCACGTGATATG, the “relative binding free energy” value is reported as 0.22 kcal/mol.
In the case of TTTCACACGTGGTGGG, the “relative binding free energy” value is reported as 0.06 kcal/mol.
In the case of TAGTGCACGTGTTGAA, the “relative binding free energy” value is reported as 0.08 kcal/mol.
GCAGGCACGTGCGGTG was tested, and the “relative binding free energy” value was -0.12 kcal/mol.
For TATCGCACGTGGGCTT, the “relative binding free energy” value was -0.16 kcal/mol.
With TGATTCACGTGTATTC the “relative binding free energy” value was 0.2 kcal/mol.
For TGTAACACGTGCAGGA, the “relative binding free energy” value was 0.08 kcal/mol.
With GTCTACACGTGTGGCG the “relative binding free energy” value was 0.4 kcal/mol.
With ATTGTCACGTGCGCGG the “relative binding free energy” value was 0.09 kcal/mol.
CAAAGCACGTGGTGGT was tested, and the “relative binding free energy” value was -0.12 kcal/mol.
TATAGCACGTGGTTCT was tested, and the “relative binding free energy” value was -0.19 kcal/mol.
ACGAGCACGTGGTTTG was tested, and the “relative binding free energy” value was -0.16 kcal/mol.
For CGAAGCACGTGTGGTG, the “relative binding free energy” value was 0.02 kcal/mol.
With TGATTCACGTGGCATA the “relative binding free energy” value was 0.31 kcal/mol.
With AAGTCCACGTGTAGTG the “relative binding free energy” value was 0.08 kcal/mol.
With CATGGCACGTGGTTAG the “relative binding free energy” value was -0.2 kcal/mol.
For TTTTGCACGTGAGAAA, the “relative binding free energy” value was 0.18 kcal/mol.
ATGGTCACGTGTGCGT was tested, and the “relative binding free energy” value was 0.13 kcal/mol.
TTTAGCACGTGTGAGT was tested, and the “relative binding free energy” value was 0.08 kcal/mol.
GGAATCACGTGGGGGC was tested, and the “relative binding free energy” value was 0.12 kcal/mol.
In the case of GTGGCCACGTGGCTTG, the “relative binding free energy” value is reported as -0.18 kcal/mol.
With CGTGACACGTGTGTTT the “relative binding free energy” value was -0.05 kcal/mol.
TGTTTCACGTGGGGGC was tested, and the “relative binding free energy” value was 0.17 kcal/mol.
With GGGGGCACGTGGGCAT the “relative binding free energy” value was -0.11 kcal/mol.
In the case of TCAAGCACGTGTGTGA, the “relative binding free energy” value is reported as -0.03 kcal/mol.
ATTTTCACGTGACATT was tested, and the “relative binding free energy” value was 0.19 kcal/mol.
For TATGCCACGTGGGGTG, the “relative binding free energy” value was -0.25 kcal/mol.
In the case of TGATGCACGTGTGTAC, the “relative binding free energy” value is reported as 0.02 kcal/mol.
CTTGTCACGTGTTGTT was tested, and the “relative binding free energy” value was -0.01 kcal/mol.
TATACCACGTGTGGTG was tested, and the “relative binding free energy” value was -0.01 kcal/mol.
With TTTGCCACGTGGTGAA the “relative binding free energy” value was -0.22 kcal/mol.
GTAAACACGTGGGCAG was tested, and the “relative binding free energy” value was -0.02 kcal/mol.
GGGGTCACGTGTGTAG was tested, and the “relative binding free energy” value was 0.2 kcal/mol.
GGGATCACGTGGTATG was tested, and the “relative binding free energy” value was 0.15 kcal/mol.
With AAATTCACGTGAGTTG the “relative binding free energy” value was 0.34 kcal/mol.
With TTGGTCACGTGTAAGC the “relative binding free energy” value was 0.28 kcal/mol.
In the case of GTAATCACGTGGTTTT, the “relative binding free energy” value is reported as 0.19 kcal/mol.
With TGACGCACGTGTTTTT the “relative binding free energy” value was -0.14 kcal/mol.
For GAGGGCACGTGAGATA, the “relative binding free energy” value was 0.12 kcal/mol.
With GGTGTCACGTGAGGTC the “relative binding free energy” value was 0.15 kcal/mol.
With ATATACACGTGTCAGT the “relative binding free energy” value was 0.04 kcal/mol.
In the case of CTACGCACGTGGGTGT, the “relative binding free energy” value is reported as -0.34 kcal/mol.
CTTTGCACGTGTGAAT was tested, and the “relative binding free energy” value was 0.01 kcal/mol.
In the case of TGTGTCACGTGCCTTG, the “relative binding free energy” value is reported as -0.01 kcal/mol.
In the case of CTTTTCACGTGCTGTT, the “relative binding free energy” value is reported as 0.31 kcal/mol.
With AGGGACACGTGTTGTG the “relative binding free energy” value was 0.03 kcal/mol.
For ATGGACACGTGTCAGG, the “relative binding free energy” value was -0.01 kcal/mol.
In the case of ATATGCACGTGTTGTC, the “relative binding free energy” value is reported as -0.01 kcal/mol.
In the case of TGTCTCACGTGGTTCG, the “relative binding free energy” value is reported as 0.17 kcal/mol.
For ATATGCACGTGTCGTC, the “relative binding free energy” value was 0.13 kcal/mol.
With AGTAGCACGTGTTAGG the “relative binding free energy” value was -0.13 kcal/mol.
In the case of GGCTTCACGTGGTGTG, the “relative binding free energy” value is reported as 0.33 kcal/mol.
For CCATGCACGTGCGGTG, the “relative binding free energy” value was 0.15 kcal/mol.
With TTGTTCACGTGCGAGG the “relative binding free energy” value was 0.26 kcal/mol.
With GTAGACACGTGAAGGA the “relative binding free energy” value was 0.33 kcal/mol.
In the case of TCTATCACGTGGGGTA, the “relative binding free energy” value is reported as -0.06 kcal/mol.
In the case of GTGCACACGTGGTGCG, the “relative binding free energy” value is reported as -0.08 kcal/mol.
AGCTTCACGTGAAGTG was tested, and the “relative binding free energy” value was 0.39 kcal/mol.
In the case of TACGGCACGTGGTGGT, the “relative binding free energy” value is reported as -0.11 kcal/mol.
In the case of GGTAGCACGTGTCGTA, the “relative binding free energy” value is reported as -0.15 kcal/mol.
TTCAACACGTGGTGAG was tested, and the “relative binding free energy” value was 0.03 kcal/mol.
With GGGAGCACGTGTGTTT the “relative binding free energy” value was -0.07 kcal/mol.
In the case of TGTTTCACGTGACGGA, the “relative binding free energy” value is reported as 0.35 kcal/mol.
With ATATTCACGTGGTAGA the “relative binding free energy” value was 0.15 kcal/mol.
With TTTTACACGTGTTACA the “relative binding free energy” value was -0.01 kcal/mol.
For TGTATCACGTGAAGAT, the “relative binding free energy” value was 0.33 kcal/mol.
TGTTCCACGTGCGGTA was tested, and the “relative binding free energy” value was 0.01 kcal/mol.
For TTTCTCACGTGGGGTA, the “relative binding free energy” value was 0.02 kcal/mol.
In the case of GCTTACACGTGTTGTG, the “relative binding free energy” value is reported as 0.13 kcal/mol.
For TCAGGCACGTGAGGAG, the “relative binding free energy” value was 0.09 kcal/mol.
With ACGCGCACGTGGGGTT the “relative binding free energy” value was -0.29 kcal/mol.
For TGTGTCACGTGCAATA, the “relative binding free energy” value was 0.05 kcal/mol.
With AGTTTCACGTGGTGCT the “relative binding free energy” value was 0.21 kcal/mol.
TGGTGCACGTGGCGCG was tested, and the “relative binding free energy” value was -0.25 kcal/mol.
With CTTGGCACGTGTTAAG the “relative binding free energy” value was -0.13 kcal/mol.
For TCGTGCACGTGGCTTG, the “relative binding free energy” value was -0.3 kcal/mol.
With CGGTTCACGTGGTACG the “relative binding free energy” value was 0.26 kcal/mol.
For GGATTCACGTGTTCTA, the “relative binding free energy” value was 0.48 kcal/mol.
With GTTCTCACGTGTGTGC the “relative binding free energy” value was 0.29 kcal/mol.
GTTGACACGTGCTATG was tested, and the “relative binding free energy” value was 0.02 kcal/mol.
With CGAGTCACGTGGGGGT the “relative binding free energy” value was -0.11 kcal/mol.
In the case of TTTAGCACGTGTGCTC, the “relative binding free energy” value is reported as 0.07 kcal/mol.
In the case of AAGGTCACGTGTGGGT, the “relative binding free energy” value is reported as 0.14 kcal/mol.
With GCGCGCACGTGCGGTG the “relative binding free energy” value was -0.13 kcal/mol.
In the case of ATTGGCACGTGAGGCG, the “relative binding free energy” value is reported as 0.02 kcal/mol.
CCGGGCACGTGTGAGT was tested, and the “relative binding free energy” value was -0.09 kcal/mol.
With GAGTACACGTGGTGGA the “relative binding free energy” value was 0 kcal/mol.
ATAGTCACGTGGGCCG was tested, and the “relative binding free energy” value was -0.06 kcal/mol.
GCAATCACGTGTGTGG was tested, and the “relative binding free energy” value was 0.09 kcal/mol.
ATATGCACGTGGGCCT was tested, and the “relative binding free energy” value was -0.13 kcal/mol.
In the case of TTATTCACGTGGAAGT, the “relative binding free energy” value is reported as 0.4 kcal/mol.
With TTTTACACGTGCCGGT the “relative binding free energy” value was 0.11 kcal/mol.
In the case of AATATCACGTGTTCGT, the “relative binding free energy” value is reported as 0.15 kcal/mol.
With ATGGTCACGTGTATAA the “relative binding free energy” value was 0.18 kcal/mol.
GTGTTCACGTGGGTGG was tested, and the “relative binding free energy” value was 0.14 kcal/mol.
In the case of AATTTCACGTGATGTA, the “relative binding free energy” value is reported as 0.36 kcal/mol.
With AGTTACACGTGTAGAG the “relative binding free energy” value was 0.09 kcal/mol.
In the case of ATGATCACGTGTAGTG, the “relative binding free energy” value is reported as 0.06 kcal/mol.
In the case of AGTGACACGTGGGTCG, the “relative binding free energy” value is reported as -0.12 kcal/mol.
With TTGCTCACGTGCTGGG the “relative binding free energy” value was 0.16 kcal/mol.
GTATACACGTGTTCTG was tested, and the “relative binding free energy” value was 0 kcal/mol.
In the case of GAATGCACGTGGGACG, the “relative binding free energy” value is reported as -0.01 kcal/mol.
GGGAGCACGTGGGTTC was tested, and the “relative binding free energy” value was -0.09 kcal/mol.
With TGGAACACGTGAGGCT the “relative binding free energy” value was 0.25 kcal/mol.
In the case of ATAATCACGTGATTTA, the “relative binding free energy” value is reported as 0.18 kcal/mol.
With ATGATCACGTGATGGG the “relative binding free energy” value was 0.39 kcal/mol.
For TACTGCACGTGTGAGG, the “relative binding free energy” value was 0.07 kcal/mol.
With GTGTTCACGTGGGTGT the “relative binding free energy” value was 0.22 kcal/mol.
In the case of TGGTGCACGTGGTTCC, the “relative binding free energy” value is reported as -0.06 kcal/mol.
With GCGGTCACGTGGTCGT the “relative binding free energy” value was 0.08 kcal/mol.
For GCGGTCACGTGGCGGG, the “relative binding free energy” value was -0.03 kcal/mol.
In the case of TTAGTCACGTGCGAAG, the “relative binding free energy” value is reported as 0.06 kcal/mol.
With CGGTACACGTGGGCTG the “relative binding free energy” value was -0.09 kcal/mol.
With GGCTCCACGTGGGGTT the “relative binding free energy” value was -0.21 kcal/mol.
TTCACCACGTGGGGTT was tested, and the “relative binding free energy” value was -0.14 kcal/mol.
For CAGTACACGTGAGGGG, the “relative binding free energy” value was 0.35 kcal/mol.
In the case of GCGGCCACGTGGGGGG, the “relative binding free energy” value is reported as -0.25 kcal/mol.
For CGAGGCACGTGCTTGG, the “relative binding free energy” value was -0.14 kcal/mol.
For TTGGGCACGTGCGTAT, the “relative binding free energy” value was -0.2 kcal/mol.
For CTGTGCACGTGTAATA, the “relative binding free energy” value was 0.12 kcal/mol.
For GCAAGCACGTGGTGGT, the “relative binding free energy” value was -0.12 kcal/mol.
GTTTCCACGTGAGGGG was tested, and the “relative binding free energy” value was 0.34 kcal/mol.
With AGGGTCACGTGTGCTT the “relative binding free energy” value was 0.07 kcal/mol.
In the case of ATTGGCACGTGTCTGT, the “relative binding free energy” value is reported as -0.18 kcal/mol.
AAGGGCACGTGGTTCG was tested, and the “relative binding free energy” value was -0.13 kcal/mol.
TATGCCACGTGGTTAT was tested, and the “relative binding free energy” value was -0.21 kcal/mol.
With CTGGTCACGTGTGGAC the “relative binding free energy” value was 0.36 kcal/mol.
ATAGGCACGTGAAATG was tested, and the “relative binding free energy” value was 0.15 kcal/mol.
